# Experimental data from PubChem BioAssay (NCATS).
# The shares of active, inactive and inconclusive entries below differ from those in the screen. Potencies of inconclusive entries are left out as doubtful fits. Activity calls are given as the source filed them. The call rests on the fitted dose curve; in most records, active means well fitted curve in the direction sought with a large enough effect; inconclusive means small, poorly fitted or top-dose-only effect, or another doubt; inactive means no such curve, though single readings can be large or run the other way.
# Target: Protein phosphatase 1D (Homo sapiens) (UniProt O15297)
# Chain of UniProt O15297 (O15297 whole entry, looked up): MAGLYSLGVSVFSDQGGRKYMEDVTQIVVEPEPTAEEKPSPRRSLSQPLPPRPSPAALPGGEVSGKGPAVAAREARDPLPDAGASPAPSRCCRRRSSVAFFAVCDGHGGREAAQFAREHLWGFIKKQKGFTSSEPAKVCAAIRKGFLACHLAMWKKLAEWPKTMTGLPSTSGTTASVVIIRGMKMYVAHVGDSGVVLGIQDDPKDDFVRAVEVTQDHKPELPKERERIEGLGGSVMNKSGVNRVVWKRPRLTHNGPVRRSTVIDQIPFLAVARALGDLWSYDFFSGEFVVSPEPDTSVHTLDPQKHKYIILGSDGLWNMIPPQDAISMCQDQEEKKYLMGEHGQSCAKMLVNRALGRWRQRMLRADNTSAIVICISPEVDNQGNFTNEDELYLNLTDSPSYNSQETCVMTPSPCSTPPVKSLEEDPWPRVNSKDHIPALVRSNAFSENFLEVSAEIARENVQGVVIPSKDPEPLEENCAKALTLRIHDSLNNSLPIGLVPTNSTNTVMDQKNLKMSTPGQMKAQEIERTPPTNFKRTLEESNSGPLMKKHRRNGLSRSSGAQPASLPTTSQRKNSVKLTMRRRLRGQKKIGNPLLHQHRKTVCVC
# Assay: Rhodamine-PBP qHTS Assay for Modulators of WT P53-Induced Phosphatase 1 (WIP1) (AID 1347425)
# Conditions: recombinant WIP1, Rhodamine-PBP phosphate fluorescence, real-time; series mostly up to 57.5 µM; activity change, negative = inhibition: at the top concentration
# From the text: Assay Provider (PI): Nathan Coussens Ph.D.
# National Center for Advancing Translational Sciences (NCATS), Rockville, MD
# National Institute of Health (NIH), Bethesda, Maryland
# WT P53-Induced Phosphatase 1 (WIP1) is a member of the magnesium-dependent serine/threonine protein phosphatase (PPM) family and is induced by P53 in response to DNA damage. In several human cancers, the WIP1 protein is overexpressed, which is generally associated with a worse prognosis. Although WIP1 is an attractive therapeutic target, no potent, selective, and bioactive small-molecule modulator with favorable pharmacokinetics has been reported. Phosphatase enzymes are among the most challenging targets for small molecules because of the difficulty of achieving both modulator selectivity and bioavailability. Another major obstacle has been the availability of robust and physiologically relevant phosphatase assays that are suitable for high-throughput screening.
# Here, we describe two orthogonal biochemical WIP1 activity assays that utilize phosphopeptides from native WIP1 substrates. We optimized a RapidFire MS assay to quantify the enzymatically dephosphorylated peptide reaction product in a 384-well format. Additionally, a redshifted Rhodamine-PBP fluorescence assay was optimized in a 1,536-well format to enable real-time WIP1 activity measurements through the detection of the orthogonal reaction product, Pi. We validated these two optimized assays by quantitative high-throughput screening against the National Center for Advancing Translational Sciences (NCATS) Pharmaceutical Collection and used secondary assays to confirm and evaluate inhibitors identified in the primary screen.
# SEQUENCE No. (e.g., 1, 2, 3, etc.); […] (e.g., Cells, Incubation, Reagent, etc.); VALUE; DESCRIPTION
# 1; Reagent; 3 uL; WIP1 (6.7 nM), Rh-PBP (13.3 uM), columns 1-48
# 3; Library Compounds; 23 nL; NCATS Pharmaceutical Collection, column 5-48
# 4; Control Compounds; DMSO in column 2, GSK2830371 (57.5 uM, final) in 3-fold serial dilutions in column 3, GSK2830371 (1.15 uM, final) in column 4
# 5; Time; 1 hr; incubation
# 6; Detection; fluorescence (f0); ViewLux, excitation filter = 525 nm, emission filter = 598 nm
# 7; Reagent; 1 uL; VEPP-pS-QETFS (40 uM), columns 2-48
# 8; Detection; fluorescence (f1); ViewLux, excitation filter = 525 nm, emission filter = 598 nm
# NOTES (numbers refer to sequence above)
# 1 & 2; Black medium binding Greiner 1536-well plates (# 789176-F); assay buffer: 50 mM Tris-HCl pH 7.5, 30 mM MgCl2, 1mM TCEP, 0.1 mM EGTA, 75 ug/mL BSA; dispensed with a BioRaptr liquid handler (Beckman Coulter).
# 3 & 4; Kalypsys pintool (equipped with 1536 pinhead, Wako USA) transfer. Tip wash sequence: DMSO, methanol, 3 sec vacuum dry.
# 5; Room temperature incubation.
# 7; VEPPL-pS-QETFS in assay buffer dispensed with a BioRaptr; final reaction conditions: 5 nM WIP1, 10 uM VEPPL-pS-QETFS, 10 uM Rh-PBP, 50 mM Tris-HCl pH 7.5, 30 mM MgCl2, 1 mM TCEP, 0.1 mM EGTA, 75 ug/mL BSA.
# 8; Measurement taken at 1 min intervals for 11 min. Delta readout = f1 - f0.
# Potency means the concentration at half of the fitted maximal effect; tags describe the fitted curve by direction and shape.
Compound,Potency,"activity change, negative = inhibition"
CC[C@H](c1ccc(O)cc1)[C@@H](CC)c1ccc(O)cc1,"inconclusive [inhibitor, partial curve, poor fit]",–
CCOc1ccccc1OCCN[C@H](C)Cc1ccc(OC)c(S(N)(=O)=O)c1,–,inactive: 17%
CC(C)=CCOc1ccc(/C=C/C(=O)c2ccc(OCC=C(C)C)cc2OCC(=O)O)cc1,"inconclusive [inhibitor, partial curve, poor fit]",–
OCCOCCN1CCN(C(c2ccccc2)c2ccc(Cl)cc2)CC1 (stereo not given),"inconclusive [inhibitor, partial curve, poor fit]",–
CCC(Cc1c(I)cc(I)c(N)c1I)C(=O)O (stereo not given),"inconclusive [inhibitor, partial curve, poor fit]",–
CCCCCCCCCCCCCCCCCCN(C)C,–,inactive: -4.87%
COc1cc2c(cc1OC)CN(C(=O)[C@H](C)N[C@@H](CCc1ccccc1)C(=O)O)[C@H](C(=O)O)C2,–,inactive: -0.682%
NS(=O)(=O)c1cc2c(cc1C(F)(F)F)NC(Cc1ccccc1)NS2(=O)=O (stereo not given),–,inactive: -2.47%
CCCCC1C(=O)N(c2ccccc2)N(c2ccccc2)C1=O,"inconclusive [inhibitor, partial curve, poor fit]",–
CCOC(=O)C1=C(C)NC(C)=C(C(=O)OC)C1c1cccc(Cl)c1Cl (stereo not given),"inconclusive [inhibitor, partial curve, poor fit]",–
CCOC(=O)C1=C(C)NC(C)=C(C(=O)OCC)C1c1ccccc1/C=C/C(=O)OC(C)(C)C,–,inactive: -29.6%
COc1ccccc1N1CCN(CC(O)COc2cc(OC)c(OC)c(OC)c2)CC1 (stereo not given),–,inactive: 9.51%
CCc1cc(S(=O)(=O)O)c2cc(C(C)C)cccc1-2,"inconclusive [inhibitor, single point]",–
O=C1c2ccccc2C(=O)C1c1ccc(Br)cc1,"inconclusive [inhibitor, partial curve, poor fit]",–
NS(=O)(=O)c1cc2c(cc1Cl)NC(CC1CCCC1)NS2(=O)=O (stereo not given),"inconclusive [inhibitor, partial curve, poor fit]",–
O=C(NC1CCN(CCc2c[nH]c3ccccc23)CC1)c1ccccc1,–,inactive: 7.26%
COc1cc(C(=O)NCCCCCC(=O)O)cc(OC)c1OC,–,inactive: 18.3%
CCCCCOc1ccc(C2SC(=O)NC2=O)cc1OCC (stereo not given),"inconclusive [inhibitor, partial curve, poor fit]",–

Compound,Potency,"activity change, negative = inhibition"
CCc1oc2ccccc2c1C(=O)c1cc(Br)c(O)c(Br)c1,"inconclusive [inhibitor, partial curve, poor fit]",–
CC1(C)[C@@H](OC(=O)CCC(=O)O)CC[C@]2(C)[C@H]3C(=O)C=C4[C@@H]5C[C@@](C)(C(=O)O)CC[C@]5(C)CC[C@@]4(C)[C@]3(C)CC[C@@H]12,"inconclusive [inhibitor, partial curve, poor fit]",–
Cc1oc(-c2ccccc2)nc1CCC(=O)c1ccc(CC2SC(=O)NC2=O)cc1 (stereo not given),"inconclusive [inhibitor, partial curve, poor fit]",–
COC(=O)C1=C(C)NC(C)=C(C(=O)OCCN(C)Cc2ccccc2)C1c1cccc([N+](=O)[O-])c1 (stereo not given),"inconclusive [inhibitor, partial curve, poor fit]",–
CN/C(=C\[N+](=O)[O-])NCCSCc1csc(CN(C)C)n1,–,inactive: 5.79%
O=C(Nc1ccc(Cl)cc1)Nc1ccc(Cl)c(C(F)(F)F)c1,"inconclusive [inhibitor, single point]",–
NS(=O)(=O)c1cc(-c2nn[nH]n2)c(NCc2cccs2)cc1Cl,"inconclusive [inhibitor, single point]",–
CC(C)(C)C(O)/C=C/c1ccc2c(c1)OCO2 (stereo not given),–,inactive: -1.7%
[Cl][In]([Cl])[Cl],"inconclusive [inhibitor, partial curve, poor fit]",–
CCOCCn1c(N2CCCN(C)CC2)nc2ccccc21,–,inactive: -1.78%
CCOc1ccccc1OCC1CNCCO1 (stereo not given),–,inactive: 10.1%
CCc1oc2ccccc2c1C(=O)c1cc(I)c(O)c(I)c1,"inconclusive [inhibitor, partial curve, poor fit]",–
CC(=O)Oc1ccc(C2(c3ccc(OC(C)=O)cc3)Oc3ccccc3NC2=O)cc1,"inconclusive [inhibitor, partial curve, poor fit]",–
Oc1ccc(Cl)cc1Cc1cc(Cl)ccc1O,"inconclusive [inhibitor, partial curve, poor fit]",–
COc1ccc2cc3[n+](cc2c1OC)CCc1cc2c(cc1-3)OCO2,–,inactive: 19.3%
CC(=O)Nc1c(I)c(NC(C)=O)c(I)c(C(=O)O)c1I,–,inactive: 3.12%
CCCCC(CC)COC(=O)c1ccccc1C(=O)O (stereo not given),"inconclusive [inhibitor, partial curve, poor fit]",–
